The full ranking holds about 16,000 sequences; the median of “Z-score” is about -0.37, and the highest 2% start at about 3.2. This is one part of the list.
What follows are sequences tested on RBM10 RRM1-ZnF (GST-tagged construct) (assay: RNAcompete 7-mer binding Z-score; higher = stronger binding preference).
Procedure: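 RNAcompete: 20 pmol GST-tagged RBM10 RNA-binding constructs were incubated with a designed RNA pool of about 241,000 sequences up to 41 nt (1.5 nmol) on glutathione beads for 30 min at 4 °C and washed. Bound RNAs were identified by microarray hybridisation. Each RNA 7-mer is scored by a one-sided Z-score of its enrichment, computed over probes that contain the 7-mer within longer pool sequences.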

Row | Sequence | RNAcompete 7-mer binding Z-score
1 | CGCACUA | -0.597
2 | UGCAGCG | 0.3
3 | CCGAUAC | -0.668
4 | CGCAAAA | -0.535
5 | CAUAAUC | -0.88
6 | CCAGGCC | -0.756
7 | GGGGUUA | 3.21
8 | CGUGUCC | -0.691
9 | CUGUGGA | 0.92
10 | UAGGGUC | 1.55
11 | UCGGGAA | 1.33
12 | CCGCAAC | -0.633
13 | UCGCUAA | -0.591
14 | UCCCGGA | -0.399
15 | CAUGGGG | 2.42
16 | GAAUUCU | -0.691
17 | GAAAUCC | -0.717
18 | GGGUACG | 2.79
19 | ACCAGAG | -0.129
20 | GGACCCU | -0.288
21 | CCCGAUC | -0.701
22 | AGGAUCC | -0.34
23 | UAGCAGA | 0.469

Row | Sequence | RNAcompete 7-mer binding Z-score
24 | ACGGGAA | 3.12
25 | AACAGGA | 1.52
26 | CGCCUAA | -0.694
27 | GCGGCGU | 0.881
28 | ACCCGUU | -0.87
29 | CUCCCUA | -0.665
30 | GCCAGUU | -0.753
31 | UCUAGCG | -0.548
32 | CCCGCAG | -0.214
33 | UGCACUU | -0.639
34 | GGGUGAG | 4.36
35 | CAUGAUA | -0.165
36 | UUUAAUC | -0.802
37 | CGACCUA | -0.733
38 | CCGCUAG | -0.418
39 | ACCGGUG | 0.439
40 | AAGGGUU | 4.07
41 | CUCCGGU | -0.467
42 | CGUUUAA | -0.714
43 | GUGCUGC | 0.0463
44 | AUCUCUA | -0.795
45 | UCUGAAA | -0.513
46 | GUAAUGU | 0.621

Row | Sequence | RNAcompete 7-mer binding Z-score
47 | UUAGGAU | 1.1
48 | ACAAAGA | -0.184
49 | CACCCCU | -0.431
50 | CAGAGAG | 0.709
51 | AUACAAU | -0.539
52 | CGCUCGG | -0.178
53 | UGUGGCG | 1.12
54 | CUCAGAU | -0.565
55 | UCCCUUC | -0.571
56 | CUAGGGA | 1.69
57 | UAAACUC | -0.72
58 | AGGAUAA | 1.16
59 | UCAGCCU | -0.815
60 | GGUCGCG | 0.803
61 | GUUAUCU | -0.47
62 | UGCUGUU | -0.571
63 | AGUCCUU | -0.792
64 | CGAGUUU | -0.513
65 | CAAAACC | -0.704
66 | AUUGCAA | -0.405
67 | UUAGAGA | 0.147
68 | CAGGCUU | -0.256
69 | AGGUACU | 0.102

Row | Sequence | RNAcompete 7-mer binding Z-score
70 | GCGCGUC | -0.197
71 | GAUCUGG | 0.261
72 | GCAAGAC | -0.155
73 | UUGCAAA | -0.321
74 | AAGCUCA | -0.691
75 | UGCCGCC | -0.415
76 | UGCUCUG | -0.678
77 | UCCGCUC | -0.694
78 | AGGAAGA | 1.7
79 | AUUUGUC | -0.737
80 | CUAAUCA | -0.539
81 | UUGCCGA | -0.561
82 | CGGGGGA | 3.17
83 | AUCGCAU | -0.396
84 | UAAAAGG | 1.52
85 | CUGUAUC | -0.649
86 | UAUUGCU | -0.772
87 | CCUGAUC | -0.792
88 | UCAGGCA | 0.355
89 | GCCCAUG | -0.552
90 | CUUCUGC | -0.87
91 | UCACAAG | -0.428
92 | AUACUUA | -0.435

Row | Sequence | RNAcompete 7-mer binding Z-score
93 | UUACACA | -0.62
94 | UUAUACG | -0.6
95 | UAGAUAU | -0.272
96 | UAUUGGA | 0.615
97 | CGGUAAC | 0.189
98 | CCGUGAA | -0.646
99 | UAGCUUA | -0.617
100 | AACAAUA | -0.266
101 | GUCAAUU | -0.662
102 | CGGGGUC | 2.14
103 | AGCAUUU | -0.759
104 | AUGGGCC | 0.907
105 | GUUCACA | -0.529
106 | UCACCUG | -0.617
107 | CGCACCC | -0.47
108 | GGGCGGG | 3.66
109 | ACACUAG | -0.337
110 | GGUGAGA | 2.57
111 | UUCCUUU | -0.841
112 | UCCGUGU | -0.701
113 | GAACUUU | -0.698
114 | UUGCUAG | -0.337
115 | CGUACCC | -0.662

Row | Sequence | RNAcompete 7-mer binding Z-score
116 | UCAUCGG | -0.106
117 | CCAUCAU | -0.815
118 | AAUGUAC | 0.0593
119 | GCGAAUC | -0.256
120 | GUUCGGG | 1.57
121 | UACGACU | -0.665
122 | GAGCCCC | -0.275
123 | UGUCCAU | -0.659
124 | UUACAAU | -0.383
125 | CACGUUA | -0.357
126 | AUCCGCA | -0.802
127 | CGUGUAA | -0.233
128 | AGGCGAA | 0.865
129 | UUGUCUG | -0.61
130 | UAAACGU | -0.444
131 | GGACGUG | 2.12
132 | CUCGUGG | 0.488
133 | GUGUAGC | 0.452
134 | AGUACUG | -0.0999
135 | UUGGAAC | 0.599
136 | UUAACCG | -0.633
137 | CUGUAAC | -0.694
138 | GGAUACC | 0.485

Row | Sequence | RNAcompete 7-mer binding Z-score
139 | GCAUCUA | -0.464
140 | AAUCAUG | -0.171
141 | UAUAGGA | 1.25
142 | AAAACCA | -0.542
143 | GAACAAU | -0.0609
144 | UUAAUCG | -0.422
145 | GAGUGCA | 0.563
146 | GGAGCGC | 1.27
147 | AAACGUG | 0.361
148 | CUAACGA | -0.578
149 | UAAGUCG | -0.373
150 | AUUAAGU | -0.217
151 | CCUCCUU | -0.818
152 | UUAUCGG | -0.171
153 | GUUUCUU | -0.542
154 | ACAAUAA | -0.49
155 | AAAGGAG | 3.8
156 | AGCGUGG | 2.32
157 | GGAUUUC | 0.00404
158 | ACAGUCC | -0.73
159 | AGGAGUC | 0.556
160 | AGCGCUG | 0.0593
161 | CUCAGGC | -0.126

Row | Sequence | RNAcompete 7-mer binding Z-score
162 | UUUAUCA | -0.756
163 | CAACCGC | -0.828
164 | GAAUGUC | -0.301
165 | UCCAGUU | -0.639
166 | UUUAGUU | -0.448
167 | UUAGAUA | -0.383
168 | ACGAUUU | -0.711
169 | UGACGGA | 1.07
170 | AUUUUGU | -0.629
171 | GGGUUUC | 1.95
172 | CAACCGG | -0.415
173 | GUUUCCC | -0.376
174 | UUCGCGA | -0.61
175 | UUCCCGG | -0.743
176 | CGGAUAA | 0.631
177 | UCAGUAU | -0.409
178 | CCCAGAA | -0.717
179 | UAGUAGG | 1.67
180 | UAGUAUA | -0.116
181 | CCUCGUG | -0.584
182 | UUCCGAA | -0.62
183 | AACGCAU | -0.493

— the supplement of paper PMC5499739
